About 260 (0.074%) of roughly 350,000 compounds were called active. Inconclusive results, whose numbers are uncertain, are shown with a selection of clear calls. Calls come from the whole dose curve; as a rule, active = well fitted inhibition curve with a large enough effect; inconclusive = small, poorly fitted or top-dose-only effect; inactive = no such curve, though single readings can be large or run the other way. Potencies of inconclusive entries are doubtful fits and often do not repeat.
Each molecule was assayed against Ferritin light chain (Equus caballus) (UniProt P02791) (assay: qHTS Assay for Identification of Novel General Anesthetics). Conditions: apoferritin/1-aminoanthracene competitive binding, fluorescence; series mostly up to 77.5 µM.
UniProt P02791, sequence (P02791 whole entry, looked up): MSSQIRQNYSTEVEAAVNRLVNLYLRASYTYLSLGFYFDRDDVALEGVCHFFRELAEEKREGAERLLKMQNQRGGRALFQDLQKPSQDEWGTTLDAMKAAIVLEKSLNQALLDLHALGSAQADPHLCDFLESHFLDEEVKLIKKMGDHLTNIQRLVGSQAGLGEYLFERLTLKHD
Method in brief: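 Concentration-response curves derived by four-parameter Hill fitting of normalized fluorescence, where compounds displaced 1-AMA from 10 uM horse apoferritin following a brief 10 min room-temperature incubation; propofol titration acted as positive control.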
With `CC[n+]1c(/C=C/C=C/N(C(C)=O)c2ccccc2)sc2cc(OC)ccc21` the Potency was inconclusive: 25.1 µM [inhibitor, partial curve]. With `Cc1ccc(NC(=O)c2cc(S(=O)(=O)NC3CCCCCC3)ccc2F)cc1F` the Potency was inconclusive: 20 µM [inhibitor, partial curve]. With `O=Cc1cccc(OC(=O)c2ccc(Cl)cc2Cl)c1` the Potency was inconclusive: 22.4 µM [inhibitor, partial curve]. With `C/C(CC(=O)NC12CC3CC(CC(C3)C1)C2)=N\NC(=O)c1ccc(F)cc1` the Potency was inconclusive: 39.8 µM [inhibitor, partial curve]. With `CN1CCN(c2oc(COc3ccc(-c4ccccc4)cc3)nc2C#N)CC1` the Potency was “inactive”. For `CCC(C)Nc1nc(-c2cccc(OC)c2O)nc2ccccc12` (stereo unspecified), the Potency was “inactive”. For `Cn1c(SCC(=O)Nc2nccs2)nnc1C12CC3CC(CC(C3)C1)C2`, the Potency was inconclusive: 35.5 µM [inhibitor, single point]. `CCOc1cc(/C=N/Nc2nnc(C)n2N)ccc1O` was tested, and the Potency was “inactive”. In the case of `CC(NC(=O)COc1ccccc1)C(=O)OCC(=O)c1cc2ccccc2o1` (stereo unspecified), the Potency is reported as inconclusive: 28.2 µM [inhibitor, partial curve]. `Cc1sc2nc(N)sc2c1C` was tested, and the Potency was inconclusive: 25.1 µM [inhibitor, partial curve]. For `O=S(=O)(c1cccc(-c2nnc(SC(F)F)n2-c2ccccc2)c1)N1CCCCC1`, the Potency was inconclusive: 31.6 µM [inhibitor, partial curve]. With `O=C(/C=C/c1ccc2c(c1)OCCCO2)c1ccccc1O` the Potency was inconclusive: 28.2 µM [inhibitor, single point]. With `CCCCCC#CCC#CCC#CCC#CCCCC(=O)O` the Potency was inconclusive: 25.1 µM [inhibitor, single point]. With `Cc1ccc(CN2C(=O)C(O)(CC(=O)c3ccc(C)cc3)c3ccccc32)cc1` (stereo unspecified) the Potency was inconclusive: 8.91 µM [inhibitor, partial curve]. `COC(=O)C1=C(C(=O)c2ccc(C)cc2)C(c2ccc(O)c(OC)c2)n2nnnc2N1` (stereo unspecified) was tested, and the Potency was “inactive”. `O=C(CCC(=O)c1cccs1)NCc1ccc(Cl)cc1` was tested, and the Potency was inconclusive: 35.5 µM [inhibitor, partial curve]. With `O=C(COC(=O)C12CC3CC(CC(C3)C1)C2)NCCCc1ccccc1` the Potency was inconclusive: 50.1 µM [inhibitor, single point]. For `CCc1ccc(NC(=O)Cn2ccn(-c3ccc(OC)cc3)c(=O)c2=O)cc1`, the Potency was “inactive”. For `Cc1ccc(C)c(NC(=O)c2ccc(OC(=O)c3ccco3)cc2)c1`, the Potency was inconclusive: 50.1 µM [inhibitor, partial curve]. `CN(C)S(=O)(=O)c1cccc(NC(=O)COC(=O)COc2ccc(Br)cc2)c1` was tested, and the Potency was inconclusive: 39.8 µM [inhibitor, single point]. `Cc1cccc(NC(=O)CC2Nc3cccc4cccc(c34)NC2=O)c1` (stereo unspecified) was tested, and the Potency was inconclusive: 12.6 µM [inhibitor, partial curve]. In the case of `O=C(CSc1ccccc1C(=O)NCc1ccccc1)NC12CC3CC(CC(C3)C1)C2`, the Potency is reported as inconclusive: 15.8 µM [inhibitor, partial curve]. With `CC(=O)OC1COC(N2CCc3cc(Br)c([N+](=O)[O-])cc32)C(OC(C)=O)C1OC(C)=O` (stereo unspecified) the Potency was inconclusive: 35.5 µM [inhibitor, partial curve]. In the case of `COC(=O)CNC(=O)c1cccc(-c2ccc(OC)cc2)c1`, the Potency is reported as inconclusive: 35.5 µM [inhibitor, single point]. With `CCN(CC(=O)Nc1ccc(NC(C)=O)cc1)CC(=O)Nc1cccc(Cl)c1` the Potency was “inactive”. `Cc1cc(/C=C2/C(=O)N(C)C(=S)N2C)c(C)n1C1CC1` was tested, and the Potency was “inactive”. In the case of `Cc1cccc(NC(=O)CSc2nc(-c3cccc(C)c3)nc3c2Cc2c(CO)cnc(C)c2O3)c1`, the Potency is reported as inconclusive: 31.6 µM [inhibitor, single point]. `O=Cc1cccn1-c1ccc2ccccc2c1` was tested, and the Potency was inconclusive: 28.2 µM [inhibitor, partial curve]. For `Cc1ccccc1Cn1c(=N)n(CC(=O)c2ccco2)c2ccccc21`, the Potency was inconclusive: 20 µM [inhibitor, partial curve]. For `O=C(NCc1ccccc1)C1CCCN1S(=O)(=O)c1ccc(F)cc1` (stereo unspecified), the Potency was “inactive”. In the case of `CCOC(=O)COc1ccc(S(=O)(=O)NCCC2=CCCCC2)cc1`, the Potency is reported as inconclusive: 17.8 µM [inhibitor, partial curve]. `CCC1=C(OC(=O)N(CC)CC)N2C(=O)OC(=NCC3CC3)[C@]2(Cc2ccccc2)[C@H]2C1=CC[C@H]1C(=O)N(CC)C(=O)[C@H]12` was tested, and the Potency was inconclusive: 56.2 µM [inhibitor, single point]. `CCCCc1cc(=O)oc2cc(C)cc(OC(C)C(=O)NCC3CCC(C(=O)O)CC3)c12` (stereo unspecified) was tested, and the Potency was “inactive”. In the case of `O=C(NC(NC(=S)Nc1cc(Cl)ccc1Cl)C(Cl)(Cl)Cl)c1ccco1` (stereo unspecified), the Potency is reported as inconclusive: 22.4 µM [inhibitor, partial curve]. In the case of `O=C(COC(=O)c1ccc(O)cc1O)c1ccc2c(c1)OCO2`, the Potency is reported as inconclusive: 31.6 µM [inhibitor, single point]. `Fc1ccc(-n2c(-c3ccco3)nc3nc4ccccc4nc32)cc1` was tested, and the Potency was “inactive”. With `COC(=O)c1cccc(NC(=O)CSc2nnc(COc3cccc(C)c3)n2C)c1` the Potency was inconclusive: 22.4 µM [inhibitor, partial curve]. With `COc1cc(/C=N/NC(=O)NC23CC4CC(CC(C4)C2)C3)ccc1O` the Potency was inconclusive: 28.2 µM [inhibitor, partial curve]. In the case of `O=c1c2ccccc2nnn1COc1cccc(Cl)c1`, the Potency is reported as inconclusive: 25.1 µM [inhibitor, partial curve]. `O=C(CCn1cccc1)Nc1cccc(F)c1` was tested, and the Potency was inconclusive: 44.7 µM [inhibitor, partial curve, poor fit]. `CCOC(=O)c1oc2ccccc2c1CSc1nnc(-c2ccco2)o1` was tested, and the Potency was inconclusive: 50.1 µM [inhibitor, partial curve, poor fit]. `Cc1cccc(NS(=O)(=O)c2ccc3c(c2)OCCO3)c1` was tested, and the Potency was inconclusive: 17.8 µM [inhibitor, partial curve]. In the case of `CCCCn1c(=O)c2oc3ccccc3c2n(Cc2ccc(OC)cc2)c1=O`, the Potency is reported as “inactive”. `COc1ccc(-c2ccoc2)cc1C1C2C=CCC(C)C2C(=O)N1Cc1ccccc1` (stereo unspecified) was tested, and the Potency was inconclusive: 10 µM [inhibitor, partial curve]. With `CCc1ccc(CN(C)C(=O)CCc2nc3ccccc3n(-c3ccc(OC)cc3)c2=O)cc1` the Potency was inconclusive: 31.6 µM [inhibitor, partial curve]. For `COc1cc(/C=N/NC(=O)c2cccnc2)ccc1OS(=O)(=O)c1cc(C)ccc1C`, the Potency was inconclusive: 20 µM [inhibitor, single point]. `Cn1c(C(=O)NCC2CCCO2)cc2oc3ccccc3c21` (stereo unspecified) was tested, and the Potency was “inactive”. With `CCN1C/C(=C/c2ccc(OC)c(O)c2)C(=O)/C(=C/c2ccc(OC)c(O)c2)C1` the Potency was inconclusive: 31.6 µM [inhibitor, partial curve]. With `COc1ccccc1OCCN1C(=O)S/C(=C\c2ccco2)C1=O` the Potency was inconclusive: 17.8 µM [inhibitor, partial curve]. For `O=C1C2=C(C(=O)c3ccccc31)C1O[C@](c3ccsc3)(Cc3ccccc31)O2`, the Potency was inconclusive: 2.82 µM [inhibitor, partial curve]. `COc1ccc(/C=C/C(=O)N2CCCc3ccccc32)cc1` was tested, and the Potency was inconclusive: 15.8 µM [inhibitor, partial curve]. In the case of `CCC(=O)O[C@@H]1[C@H](C)O[C@H](O[C@H]2[C@@H](N(C)C)[C@H](O)[C@@H](O[C@@H]3[C@@H](CC=O)C[C@@H](C)[C@@H](O)/C=C\C=C/C[C@@H](C)OC(=O)C[C@@H](OC(=O)CC)[C@H]3OC)O[C@H]2C)C[C@]1(C)O`, the Potency is reported as “inactive”. In the case of `O=C(O)c1ccccc1NC(=S)NC(=O)c1cccc2ccccc12`, the Potency is reported as “inactive”. `CC1CN(C(=O)Nc2ccc(Br)cc2Cl)CC(C)O1` (stereo unspecified) was tested, and the Potency was inconclusive: 28.2 µM [inhibitor, partial curve]. `COc1ccccc1C(C)NS(=O)(=O)c1cccs1` (stereo unspecified) was tested, and the Potency was inconclusive: 44.7 µM [inhibitor, single point]. `COc1cccc(Nc2nc3ccc(OC)cc3s2)c1` was tested, and the Potency was inconclusive: 25.1 µM [inhibitor, partial curve]. In the case of `CS(=O)(=O)c1ncc(Cl)c(C(=O)N2CCN(c3cccc(Cl)c3)CC2)n1`, the Potency is reported as inconclusive: 31.6 µM [inhibitor, partial curve]. With `CSc1nc2ccc(NS(=O)(=O)c3ccc(Cl)s3)cc2s1` the Potency was inconclusive: 31.6 µM [inhibitor, partial curve]. With `O=C(CN1C(=O)COc2ccc(S(=O)(=O)N3CCOCC3)cc21)NCc1ccc(Cl)cc1` the Potency was “inactive”. For `Cc1ccc(Cn2c(C(=O)Nc3ccc(Cl)cc3)cc3sccc32)cc1`, the Potency was “inactive”. For `CCc1ccccc1OCc1nc2ccc(S(=O)(=O)N3CCOCC3)cc2[nH]1`, the Potency was inconclusive: 35.5 µM [inhibitor, partial curve]. For `COc1ccccc1/C=C1\SC(=O)N(CC(=O)NCCCn2ccnc2)C1=O`, the Potency was “inactive”. For `COc1cc(Cl)c(C)cc1NC(=O)CNC(=O)Cn1ccc2ccccc2c1=O`, the Potency was “inactive”. For `COc1ccc(NS(=O)(=O)c2ccc(O)c(C(=O)OCC(=O)NC(C)C3CC4CCC3C4)c2)cc1` (stereo unspecified), the Potency was inconclusive: 17.8 µM [inhibitor, partial curve]. `Cc1ccc2c(c1)Sc1ccccc1CC2=O` was tested, and the Potency was inconclusive: 7.08 µM [inhibitor, partial curve]. With `Cc1cc(SCc2c(F)cccc2Cl)nc(=O)[nH]1` the Potency was inconclusive: 22.4 µM [inhibitor, partial curve].
Note: nearly all actives have a fitted effect of over 20% in size.
Potency is the fitted concentration of half-maximal effect; tags give direction and shape of the fitted curve.
